The results in this text go back to PMC4336329 (PLoS ONE, 2015).

Hit rate of the full screen: of about 310,000 compounds, about 2,200 (0.71%) showed an effect of 50% or more. The effect is printed as a negative number. This is one part of the list.

In the assay the target is human ether-à-go-go-related gene (hERG) potassium channel (human, UniProt Q12809). In words: primary screen, population patch clamp on CHO cells stably expressing hERG.
Chain of human ether-à-go-go-related gene (hERG) potassium channel (Q12809 whole entry, looked up): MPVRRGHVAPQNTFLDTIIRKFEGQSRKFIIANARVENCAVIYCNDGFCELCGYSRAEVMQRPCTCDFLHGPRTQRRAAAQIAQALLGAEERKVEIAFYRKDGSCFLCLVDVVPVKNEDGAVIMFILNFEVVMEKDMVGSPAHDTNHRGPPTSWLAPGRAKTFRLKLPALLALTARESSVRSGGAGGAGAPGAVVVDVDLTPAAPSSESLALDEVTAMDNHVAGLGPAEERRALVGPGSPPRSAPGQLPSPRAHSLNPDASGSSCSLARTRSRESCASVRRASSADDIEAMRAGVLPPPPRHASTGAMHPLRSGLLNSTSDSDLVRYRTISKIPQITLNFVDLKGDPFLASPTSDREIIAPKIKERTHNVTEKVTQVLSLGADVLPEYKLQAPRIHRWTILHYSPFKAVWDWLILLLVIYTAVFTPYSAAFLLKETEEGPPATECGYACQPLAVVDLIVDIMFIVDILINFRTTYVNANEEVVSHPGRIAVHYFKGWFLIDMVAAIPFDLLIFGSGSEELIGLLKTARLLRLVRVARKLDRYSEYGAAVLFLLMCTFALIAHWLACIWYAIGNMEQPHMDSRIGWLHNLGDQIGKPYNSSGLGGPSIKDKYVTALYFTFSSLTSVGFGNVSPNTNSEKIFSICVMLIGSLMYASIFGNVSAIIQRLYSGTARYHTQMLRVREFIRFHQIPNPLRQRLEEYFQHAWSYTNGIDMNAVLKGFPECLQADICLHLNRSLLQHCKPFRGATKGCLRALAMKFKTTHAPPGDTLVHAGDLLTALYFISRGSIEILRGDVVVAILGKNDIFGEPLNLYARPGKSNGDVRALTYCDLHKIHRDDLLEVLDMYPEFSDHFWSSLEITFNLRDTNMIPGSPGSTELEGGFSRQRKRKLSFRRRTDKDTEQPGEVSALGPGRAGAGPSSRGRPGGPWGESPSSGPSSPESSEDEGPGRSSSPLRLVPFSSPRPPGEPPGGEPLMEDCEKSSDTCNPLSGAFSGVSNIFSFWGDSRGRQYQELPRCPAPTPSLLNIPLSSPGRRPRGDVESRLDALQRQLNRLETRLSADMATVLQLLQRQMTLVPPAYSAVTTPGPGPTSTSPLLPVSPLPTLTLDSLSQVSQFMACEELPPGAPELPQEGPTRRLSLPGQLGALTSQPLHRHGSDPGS
Regarding `O=S(=O)(NCCc1ccc(Cl)cc1)c1cccs1`, the “hERG current change (%, negative = inhibition) at 1uM” value came to 8.82%. For `CS(=O)(=O)N1CCN(c2ccccc2NC(=O)c2cccnc2Cl)CC1`, the “hERG current change (%, negative = inhibition) at 1uM” value is recorded as -1.51%. On to `COc1ccc(N2CCN(C(=O)C3CCN(S(=O)(=O)c4c(C)noc4/C=C/N(C)C)CC3)CC2)cc1`, for which the “hERG current change (%, negative = inhibition) at 1uM” value is recorded as -2.82%. On to `COc1ccc(N2CCCCn3c2nc2c3c(=O)[nH]c(=O)n2C)cc1`, for which the “hERG current change (%, negative = inhibition) at 1uM” value is reported as 2.58%. Next, `O=C(/C=C/c1ccc(S(=O)(=O)N2CCOCC2)cc1)NCc1ccccc1F`: 7.4%; `O=C(NC1CCCC1)C(c1ccc(N2CCOCC2)cc1)N(Cc1ccccc1)C(=O)c1ccco1` (stereo not drawn): 11%.

For the compound `COc1ccc(Cn2nnc3c(=O)[nH]c(C4CCN(S(=O)(=O)c5ccc(C)cc5)CC4)nc32)cc1`, the “hERG current change (%, negative = inhibition) at 1uM” value is reported as 14%. The value for `Cc1nc(SCC(=O)O)c2oc3ccccc3c2n1` was 13.7%; that for `Cc1ccc(C(=O)O)cc1NC(=O)C1=CSCCO1` was 7.35%. Next, `CC1CN(C(=O)CN2C(=O)NC(C)(c3ccccc3)C2=O)CC(C)O1` (stereo not drawn): 1.6%. For `N#C/C(=C/c1ccc(Oc2ccc([N+](=O)[O-])cn2)cc1)C(=O)N1CCOCC1`, the “hERG current change (%, negative = inhibition) at 1uM” value amounted to 11.1%.

For the compound `CNC(=S)NCc1ccc2[nH]c3c(c2c1)CCCC3`, the “hERG current change (%, negative = inhibition) at 1uM” value was determined as 4.36%. Next, `CC(C)(CCl)C(=O)Nc1ccc(C(F)(F)F)cc1`: 4.94%; `Cc1ccc(-c2csc3nnc(SCC(=O)Nc4cccc(C)n4)n23)cc1`: -3.01%; `CCOc1ccc(N2C(=O)CC(Cc3ccccc3OC)C2=O)cc1` (stereo not drawn): 2.72%.

Take `COc1ccc(-c2nc3ccccc3c(=O)n2NC(=O)c2cccnc2Cl)cc1OC`: the “hERG current change (%, negative = inhibition) at 1uM” value is recorded as 11.2%. Regarding `CC1(C)Cc2c(c(=S)nc(-c3ccccc3)n2CCOCCO)CO1`, the “hERG current change (%, negative = inhibition) at 1uM” value is reported as -1.9%. The value for `[O-][N+]1=C2CCC/C(=N\O)C2=NC12CCCCC2` was 4.5%; that for `O=C(CCNC(=O)c1ccc([N+](=O)[O-])cc1)NNC(=O)c1ccncc1` was 13.8%; that for `Cc1nn(Cc2ccccc2Cl)c(C)c1NC(=O)CCCn1nc(C)c([N+](=O)[O-])c1C` was 5.05%. Next, `Cc1nc2cc(NS(=O)(=O)c3ccc(Br)cc3)ccc2n1C`: 10.8%; `Cc1cc(=O)oc2cc(NS(=O)(=O)c3ccc(F)cc3)ccc12`: 9.03%. Next, `Cc1ccccc1CSCC(=O)N1CCN(c2ccccc2)CC1`: -5.67%. Turning to `O=[N+]([O-])c1ccc(-n2nncc2-c2ccccc2)cc1`, the “hERG current change (%, negative = inhibition) at 1uM” value worked out at 0.0452%.
